Data published in patent US20260098070A1 (DEM BIOPHARMA, published 2026).

Target: T1, CD177 expressed on transfected HEK293 cells (human, UniProt Q8N6Q3 22-408)
T1 construct: whole, on cells; also called CD177-overexpressing cells; CD177-expressing cells
T1 sequence (looked up): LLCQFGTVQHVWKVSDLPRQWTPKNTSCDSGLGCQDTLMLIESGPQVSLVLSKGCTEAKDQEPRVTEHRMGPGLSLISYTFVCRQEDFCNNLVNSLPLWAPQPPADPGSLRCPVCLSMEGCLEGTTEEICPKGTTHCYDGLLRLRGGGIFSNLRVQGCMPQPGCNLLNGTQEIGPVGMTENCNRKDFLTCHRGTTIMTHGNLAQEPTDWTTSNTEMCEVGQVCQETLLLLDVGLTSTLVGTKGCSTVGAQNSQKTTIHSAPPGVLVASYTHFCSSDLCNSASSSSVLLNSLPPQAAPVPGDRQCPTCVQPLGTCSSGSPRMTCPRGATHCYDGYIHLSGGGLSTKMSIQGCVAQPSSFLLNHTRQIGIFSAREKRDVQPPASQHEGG
Test: flow cytometry, live HEK293 transfectants, 5 µg/mL probe, AF647 anti-human Fc, duplicate
Procedure: Binding of hSMAGP ECD-hIgG1 Fc to CD177 was reevaluated in a live cell assay using flow cytometry. HEK293 cells were transfected with expression vectors encoding ZsGreen1 only (Control) or ZsGreen1 and CD177. Live cell transfectants, including Control-only transfected cells, were incubated with 5 μg/mL of hSMAGP ECD-hIgG1 Fc. Cells were washed and the binding was detected using AF647-labeled anti-human Fc secondary antibody by flow cytometry. The assays were performed in duplicate.

B1: hSMAGP ECD-hIgG1 Fc (Fc fusion)
chain: not shown
notes: Biotinylated (EZ-link NHS-LC-LC-biotin) in the lectin microarray and ELISA assays; also called human SMAGP ECD-hIgG1 Fc; HuSMAGP-hIgG1
- fold change in median fluorescence intensity over control cells: 157 fold
